# Source: ChEMBL document CHEMBL4888484, “Replenishing the malaria drug discovery pipeline: Screening and hit evaluation of the MMV Hit Generation Library 1 (HGL1) against asexual blood stage Plasmodium falciparum ,using a nano luciferase reporter read-out” (2022)
# The whole screen tested about 4,800 compounds, of which about 420 (8.8%) showed an effect of 50% or more. The list shows a part of the results.
# Test system: Plasmodium falciparum
# Experiment: Confirmatory screen in NF54 nanoGlo assay, in single point, at 2uM, 72h
# Type: functional, Erythrocyte
# Conditions: timepoint 72 hour
row,SMILES,% Inhibition [%]
1,COCCNc1ccc(S(N)(=O)=O)cc1N,-3
2,Cc1ccc(S(=O)(=O)c2c(C)cc(-c3ccccc3)nc2N2CCOCC2)cc1,0
3,CS(=O)(=O)N1CCC(C(=O)Nc2cnn(Cc3c(F)cc(F)c(F)c3F)c2)CC1,5
4,Cc1cccc(N2CCN(CCCNC(=O)CCn3c(=O)c(C)nc4cc(C)c(C)cc43)C[C@@H]2C)c1,0
5,CCc1ccc(-n2c(=O)[nH]c3nc(N4CCN(c5ccccc5F)CC4)ncc3c2=O)cc1,-17
6,CC1(C)CN(C(=O)c2c[nH]c3ccccc23)CC[S@@+]1[O-],-8
7,CC(C)CN1C(=O)CC[C@@H](C(=O)NCCCOC(C)C)[C@@H]1c1cccnc1,-13
8,O=C(Nc1ccc(Cl)cc1)c1cccc(N2C(=O)C3CCC(c4ccccc4)CC3C2=O)c1 (stereo not drawn),-5
9,CCN1CCC[C@@H]1CNC(=O)c1[nH]nc2c1CCc1ccccc1-2,-11
10,N#Cc1ccc(NCCc2csc(N)n2)nc1,-11
11,O=C(Nc1ccccc1Cl)Nc1cccc2c(-c3ccccc3)c(C(=O)N3CCOCC3)[nH]c12,2
12,O=C1NS(=O)(=O)c2cc(N3CCN(Cc4ccccc4)CC3)ccc21,2
13,CCS(=O)(=O)CCNC(=O)c1cccc(F)c1F,0
14,Cc1ccc2sc(C(=O)N3CC(OCC(=O)N(C)C)C3)cc2c1,4
15,Cn1c(-c2ccccc2)c[n+](CC(=O)c2ccc3c(c2)OCO3)c1N,1
16,CCc1nc(NS(=O)(=O)c2cc(Cl)sc2Cl)no1,-4
17,CCOC(=O)c1c(CN2CCOCC2)n(-c2ccc(C)cc2)c2ccc(Oc3nccc(Nc4ccccc4)c3C#N)cc12,-5
18,Cc1cccc(CN(Cc2cccc(C)n2)C[C@H]2CCCCO2)n1,90
19,COCCCNC(=O)c1cncc(Br)c1,-3
20,CC(C)NC(=O)C(=O)Nc1nccs1,-14
21,C[C@H](C#N)CN(C)c1nc(C2CC2)nc2scc(-c3ccccc3)c12,1
22,COc1ccc(F)cc1S(=O)(=O)N1CCc2noc(N)c2C1,68
23,CCc1n[nH]c(C(=O)N2CC3CCCN3CC2CC)c1Br (stereo not drawn),7
24,Cc1ccc(C2=C[C@@H](c3ccc(Cl)cc3)n3nc(NC(=O)c4ccccc4)nc3N2)cc1,94
25,Cc1cc(S(=O)(=O)NC(=O)CCC(C)C)c(C)o1,-7
26,COC[C@H](NCCc1cc(F)cc2c1OCOC2)C1CC1,63

row,SMILES,% Inhibition [%]
1,Cc1cc(C)cc(-n2c(=O)c3sccc3n(CC(=O)NCc3ccccc3Cl)c2=O)c1,-15
2,CCCCNC(=O)Nc1cccc(C#CCN)n1,-2
3,CCN(CCNC(=O)C1CC1c1cccc(Cl)c1Cl)CC(F)F (stereo not drawn),-2
4,CCC1=Nc2ccccc2N=C(NC(=O)C(C)C)[C@H]1c1ccc(F)cc1,20
5,Cn1ccc(CNC(=O)c2c(Br)cnn2C)n1,-15
6,CN1C(=O)[C@H](OC(=O)COc2ccccc2)N(c2cccc(Cl)c2)C1=O,-11
7,Cc1ccc(-c2cc3ncc(S(=O)(=O)c4ccccc4)c(-c4cccs4)n3n2)cc1,-14
8,Cc1cccn(Cc2nnnn2C2CC2)c1=O,3
9,COc1cc(NC(=O)c2cccc3c(Br)cccc23)ccc1NC(=O)c1ccccc1Cl,0
10,Cc1cc(NC(=O)c2occc2-c2ccccc2)sn1,-2
11,Cc1ccc([C@@H]2CC(=O)Nc3nc(N4CCN(CCO)CC4)nc(O)c32)cc1,2
12,FC(F)Oc1ccc(-c2c[n+](-c3cccc(C(F)(F)F)c3)c3n2CCCCC3)cc1,44
13,COc1ccc(CCN2C(=O)COCC2=O)cc1OC,1
14,FC(F)(F)c1nnc(NCc2cncs2)s1,-11
15,Cc1noc(C(C)(C)NC(=O)Nc2c[nH]nc2-c2nccs2)n1,-7
16,COc1ccc(S(=O)(=O)N2CC[C@@H]3[C@@H](COCCN3Cc3ccccc3)C2)cc1,-7
17,CC[C@@H](CCNS(=O)(=O)c1cn(C(F)F)nc1C)n1ccc(C(F)(F)F)n1,-8
18,O=C(NC(Cn1ccccc1=O)c1ccccc1)C1CCOC1 (stereo not drawn),2
19,Cc1cc(C(=O)NC(C)C)nc(N(C)C)n1,2
20,CC1(C)C2CCC13CS(=O)(=O)N=C3C2 (stereo not drawn),3
21,Cc1nnc(Cn2nnc(C(=O)NCC3(CC(C)C)CCC3)c2C)o1,-12
22,CCc1nnc2ccc(S(=O)(=O)N(CC#N)c3ccccc3)cn12,-17
23,CO[C@@H](CNC(=O)c1nc2n(n1)-c1ccccc1S(=O)(=O)N2)c1ccccc1,-2
24,O=C(c1c(F)cccc1F)N1C[C@@H]2CCCN2c2ccc(C(F)(F)F)cc21,-13
25,Cc1cc(NC(=O)Cn2cc(F)ccc2=O)n(C)n1,0
26,COc1ccccc1C1CC(=O)Nc2nc(N3CC(C)CC(C)C3)nc(O)c21 (stereo not drawn),-8

row,SMILES,% Inhibition [%]
1,Nc1nccnc1C(=O)NCc1ccc(Cn2ccnc2)cc1,-5
2,O=C(NCCc1cccs1)c1cnn2c(-c3ccc4c(c3)OCO4)ccnc12,-9
3,COc1ccc(NC(=O)Cn2c(=O)n(CCc3cccs3)c(=O)c3ccccc32)cc1Cl,9
4,CC(C)NC(=O)N(CC(=O)N1CCn2cccc2[C@H]1c1cccc(F)c1)C1CC1,9
5,Cc1nn(C)c(Cl)c1NC(=O)OCc1ccc(F)cc1,-4
6,Cc1ccc(-c2nn(Cn3nc(C)c(Cl)c3C)c(-c3ccc(C)cc3)c2Br)cc1,-9
7,CC(=O)NCC(=O)N1CCC(OC(C)(C)C)CC1,2
8,O=C(c1cnc2ccccc2n1)N1CCCC1,-4
9,COc1ccc(CCNC(=O)Cn2c(=O)ncc3cc(S(=O)(=O)N4CCCC[C@@H]4C)ccc32)cc1OC,3
10,O=C(Nc1nc2cccc(Cl)c2o1)c1cccc(F)c1,92
11,CCN1CCN(c2nc3ncn(CC(=O)NC(C)C)c(=O)c3s2)CC1,-14
12,Cc1noc(Cn2c(=O)c3ccccc3n(CC(=O)Nc3cccc(Cl)c3C)c2=O)n1,-3
13,Cc1cc(F)ccc1N1CCC[C@H](NC(=O)c2csnc2C)C1=O,-3
14,O=C(O)C1c2ccccc2C(=O)N(C2CCCCC2)C1c1ccc(Cl)cc1 (stereo not drawn),-9
15,O=C(CCn1nc2ccccn2c1=O)N1CC(CC(F)F)C1,0
16,Cc1nc2cccnc2n1-c1cc(C(=O)NCCc2ccccc2)ccc1Cl,1
17,Cc1coc(-c2ccc(C)c(NC(=O)CCN3C(=O)CCC3=O)c2)n1,-10
18,CNC(=O)N1CCN(c2cc(C)nc(C3CC3)n2)CC1,-18
19,Cc1[nH]c2ccnn2c(=O)c1CC(=O)N1CC[C@H](C)c2cccc(O)c21,-2
20,COc1ccc(N2CCN(C(=O)CN3C(=O)COc4cc(C)ccc43)CC2)cc1,1
21,O=c1cc(-c2ccccc2F)[nH]c2cc3c(cc12)OCO3,-3
22,Cc1cc2c(cc1C)[C@H](C(=O)Nc1cc(C(N)=O)ccc1Cl)CO2,-1
23,C#C[C@H](C)N(C)Cc1c[nH]c(C(=O)OC)c1,-12
24,Nc1nc(-c2ccc(Br)cc2)nc(-c2ccc(Br)cc2)n1,-4
25,Cc1cc(-c2csc(CN3C(=O)CNC3=O)n2)cc(C)c1F,-4
26,Cc1ccc(C)c(NC(=O)N2CC(n3cnnc3-c3ccccc3)C2)c1,-7

row,SMILES,% Inhibition [%]
1,O=C(c1ccc(COc2ccc3ccccc3c2)o1)N1CCN(c2ccccn2)CC1,2
2,COc1cccc(-c2cc3c(N4CCN(c5ccccn5)CC4)nccn3n2)c1,0
3,CCC(=O)Nc1cc(Br)c(N)c(Br)c1,-12
4,O=C(N[C@H]1C[C@@H]2C[C@H]1CN2C(=O)c1ccc(C(F)(F)F)s1)c1cccnc1,4
5,O=C(c1ccccc1Cl)N1CCC[C@H](n2cnc3ccccc3c2=O)C1,18
6,Cc1n[nH]c2ncc(NC(=O)c3ccc(CCC(F)(F)F)cc3)cc12,8
7,O=C(NC1CCCC1)N1CCC2(CC1)C[C@@H](OCc1ccccc1)CCO2,-3
8,Cc1cccc(C)c1NC(=O)C1CCN(S(=O)(=O)c2c(C)nn(-c3ccccc3)c2C)CC1,-6
9,CN(CC(=O)Nc1ccccc1C(F)(F)F)C1CNC1,3
10,COc1ccccc1[C@H]1CC(O)=Nc2c1ncn2-c1cc(F)cc(F)c1,-4
11,CC1OC2(OC1C)C(=O)N(C1CCOC1=O)c1ccccc12 (stereo not drawn),-7
12,COc1ccc(-c2nc(N)s[n+]2-c2ccccc2)cc1,-2
13,CC1(C)CCc2nnc(COc3ccc(C#N)cc3)n2C1,1
14,COc1ccnc(N2CCc3nn(C(C)C)c(=O)cc3C2)n1,-4
15,O=C(Cn1c(=O)n(Cc2ccco2)c(=O)c2ccccc21)NC1CCCCC1,6
16,Cn1cc(C(=O)NCCOc2ccc3ccccc3n2)cn1,-16
17,O=C(CNC(=O)c1ccc(Cl)cc1)Nc1ccc2[nH]c(=O)[nH]c2c1,4
18,COc1ccc(-c2c(C(F)(F)F)n[nH]c2-c2ccc(OCc3ccccc3F)cc2O)cc1,90
19,O=C1C[C@H](c2nc3cc(Cl)ccc3o2)CN1c1ccc(F)cc1,-10
20,CN(Cc1nc2ccccc2c(=O)[nH]1)C(=O)c1ccc(N2CCCC2=O)cc1,4
21,CC(=O)c1cn(CC(=O)N2CCNC(=O)C2)c2ccccc12,3
22,CCN(CC)c1nc(-c2ccccc2)c(C#N)c(N)c1C#N,0
23,COc1cc(Cl)cc2c1OC=CC(C(=O)Nc1ccc(C)cc1)=C2,3
24,CC(=O)N1CCN(c2nc3c(s2)C[C@@H](C(=O)NCc2ccccc2F)CC3)CC1,-16
25,COc1ccc([C@H](C)NC(=O)/C(=C/c2ccccc2Cl)c2ccccc2)cc1,-22
